Results taken from PubChem BioAssay AID1477 (National Center for Advancing Translational Sciences (NCATS), 2009).
The campaign covered roughly 230,000 compounds. Fewer than 10 were called active. This list was built around the results that the source calls inconclusive (neither active nor inactive); the mix of calls is not that of the screen. Calls follow the shape of the dose curve; as a rule, active = well fitted curve in the direction sought with a large enough effect; inconclusive = small, poorly fitted or top-dose-only effect, or effect the other way, or another doubt; inactive = no such curve, though single readings can be large or run the other way. No potency is given beside an inconclusive call; the fits are too rough.

target: Runt-related transcription factor 1 (Homo sapiens) + Core-binding factor subunit beta (Homo sapiens) (UniProt Q01196+Q13951); assay: qHTS Assay for Compounds Blocking the Interaction Between CBF-beta and RUNX1 for the Treatment of Acute Myeloid Leukemia; conditions: AlphaScreen CBFb-His/RUNX1-biotin binding, biochemical; activity, negative = inhibition: at 59.8 µM (top of the series) unless noted; as to activity, negative = inhibition: % of control where 0% means no effect
Outline: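 Proteins preincubated together for 20 min at RT before compound addition; 15 min later, nickel and streptavidin beads were added and left 90 min prior to AlphaScreen measurement.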

Chain of UniProt Q01196 (Q01196 whole entry, looked up): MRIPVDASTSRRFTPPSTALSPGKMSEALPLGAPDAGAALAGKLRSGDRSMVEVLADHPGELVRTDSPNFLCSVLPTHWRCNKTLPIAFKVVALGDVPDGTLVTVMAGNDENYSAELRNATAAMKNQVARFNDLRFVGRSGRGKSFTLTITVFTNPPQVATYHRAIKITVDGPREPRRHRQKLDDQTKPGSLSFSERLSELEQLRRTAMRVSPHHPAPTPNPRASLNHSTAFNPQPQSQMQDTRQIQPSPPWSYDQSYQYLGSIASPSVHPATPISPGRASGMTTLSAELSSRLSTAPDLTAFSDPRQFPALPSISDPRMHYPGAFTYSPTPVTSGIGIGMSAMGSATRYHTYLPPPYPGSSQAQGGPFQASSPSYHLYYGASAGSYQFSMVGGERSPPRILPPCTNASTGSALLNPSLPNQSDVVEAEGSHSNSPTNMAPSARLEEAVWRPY
Chain of UniProt Q01196 (Q13951 whole entry, looked up): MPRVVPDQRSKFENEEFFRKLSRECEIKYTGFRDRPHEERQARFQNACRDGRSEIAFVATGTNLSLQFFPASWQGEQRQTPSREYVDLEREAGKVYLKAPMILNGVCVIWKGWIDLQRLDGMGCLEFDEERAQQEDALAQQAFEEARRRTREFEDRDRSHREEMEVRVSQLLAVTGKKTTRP

SMILES	Potency	activity, negative = inhibition
CCCCC(=O)N/N=C/c1c(O)n(C2CC2)c(=S)[nH]c1=O	inconclusive [inhibitor, single point]	–
O=C(N/N=C\c1ccc(F)cc1)c1ccc(Cn2cc(Br)c([N+](=O)[O-])n2)o1	inconclusive [inhibitor, partial curve, poor fit]	–
Cc1ccc(OCC(=O)c2ccc3c(c2)CCCC3)cc1C	inconclusive [activator, single point]	–
Cc1cc(C)cc(C(=O)N(C)[C@H](Cc2ccc(-c3ccccc3)cc2)C(=O)N[C@@H](Cc2c[nH]c3ccccc23)C(=O)O)c1	inactive	–
CCCOc1ccc(C(=O)NC(=S)NNC(=O)c2c(-c3ccccc3)noc2C)cc1	–	inactive: -23%
O=C(CN1CCN(c2ccc(O)cc2)CC1)Nc1cc(S(=O)(=O)N2CCCCC2)ccc1Cl	inconclusive [inhibitor, partial curve]	–
CC(C)CC(C)Nc1ccc(Nc2ccccc2)cc1 (configuration not stated)	inconclusive [inhibitor, single point]	–
COc1ccc(C(=O)Nc2ccc3[nH]c(-c4cccc(OC)c4)cc(=O)c3c2)cc1	inconclusive [inhibitor, partial curve, poor fit]	–
COc1cccc(OC)c1-c1nn2c(-c3cc(-c4ccccc4)n[nH]3)nnc2s1	inconclusive [activator, partial curve]	–
O=C(Nc1ccc(-c2noc(-c3cccs3)n2)cc1)c1cccnc1	inconclusive [activator, single point]	–
COC(=O)C/C=C\[C@@H](C)[C@@H](/C=N\O[C@@H](C)c1cc(-c2c(C)cc(C)cc2C)no1)OC	inconclusive [activator, single point]	–
O=c1c(O)c(-c2cccs2)oc2ccc(Cl)cc12	inconclusive [activator, single point]	–
Cc1ccc(N2C(=O)C3C4C=CC(CNC(=S)Nc5ccc(Cl)cc5)(O4)C3C2=O)cc1 (configuration not stated)	–	inactive: -0.427%
Cc1cccc(NC(=O)COC(=O)c2ccc3c(=O)n4c(nc3c2)CCC4)c1	–	inactive: 5.96%
Cc1sc2c(c1C)C(=O)/C(=C\Nc1ccncc1)S(=O)(=O)N2C	inconclusive [activator, full curve]	–
CCOc1cc(C=O)ccc1OCCSc1ccc(Cl)cc1	inconclusive [activator, single point]	–
COc1ccc([N+](=O)[O-])cc1NC(=O)COC(=O)c1ccccn1	inconclusive [inhibitor, partial curve]	–
C/C(=N\Nc1ccc(S(N)(=O)=O)cc1[N+](=O)[O-])c1ccccc1O	inconclusive [inhibitor, single point]	–
O=C(Cc1ccccc1)N1CCN(Cc2cccc(Br)c2)CC1	–	inactive: 13.4%
O=C(/C(N=Nc1cccc([N+](=O)[O-])c1)=C(/O)c1ccc(Br)cc1)C(F)(F)F	inconclusive [inhibitor, single point]	–
Cc1ccc(-c2c3c([nH]c(=S)c2C#N)CCCC3)o1	inconclusive [inhibitor, single point]	–
COc1ccc(/C=C/C(=O)OCCC(C)C)cc1	inconclusive [activator, partial curve]	–
Cc1cc(C)n2nc(SCC(=O)c3cc(C)n(-c4cc(C)on4)c3C)nc2n1	–	inactive: -3.8%
CCc1ccccc1OCCCCN1CCCC1	–	inactive: 12.2%

SMILES	Potency	activity, negative = inhibition
CCCn1nc(NC(=O)C2CCCO2)c2cc3cccc(C)c3nc21 (configuration not stated)	inconclusive [activator, partial curve]	–
COC(=O)C(C(=O)OC)C(C(C)C)C(C(=O)OC)C(=O)OC	–	inactive: 4.1%
COc1ccc2nc3c(cc2c1)c(NC(=O)c1cccs1)nn3CC(C)C	inconclusive [activator, partial curve]	–
CCNC(=O)NC(=O)CN(C)c1ccccc1	–	inactive: 4.45%
COc1cc([N+](=O)[O-])cc(/C=N/NC(=O)C(C)Nc2cccc3ccccc23)c1O (configuration not stated)	inconclusive [inhibitor, partial curve]	–
C=CCN=c1scc(-c2ccco2)n1/N=C/c1ccc(O)c(O)c1O	inconclusive [inhibitor, partial curve]	–
COc1cc(C)ccc1OCCOc1c(Cl)cc(Cl)cc1Cl	–	inactive: 5.31%
Oc1ccc2ccccc2c1N=Nc1ccccc1F	inconclusive [inhibitor, partial curve]	–
OCCCc1ccccc1	inconclusive [activator, single point]	–
CCCC[C@@H](C=O)NC(=O)[C@H](CC(C)C)NC(=O)OCc1ccccc1	–	inactive: 7.69%
O=C(NNC(=O)c1ccccc1Cl)c1cccs1	inconclusive [activator, single point]	–
CC(=O)Nc1ccc2c(c1)nc(CCNC(=O)c1ccccc1)n2C	–	inactive: -7.22%
CCCCC(=O)NC(c1cccc([N+](=O)[O-])c1)c1c(OC(C)=O)ccc2ccccc12 (configuration not stated)	–	inactive: 4.98%
Cc1cc(C)cc(NC(=O)Cn2c(SCc3cc(C)ccc3C)nc3ccncc32)c1	–	inactive: -1.96% [at 2.36 µM]
CCOP(=O)(Cc1ccc(C(C)(C)CC(C)=O)o1)OCC	–	inactive: 0.0259%
CCCNc1nc2c(c(=O)n(C)c(=O)n2C)n1CCc1ccccc1	–	inactive: 7.48%
O=C(CSc1ncn[nH]1)Nc1ccc(Cl)c(Cl)c1	–	inactive: 10.4%
CC(C)CC(CSc1ccc(Br)cc1)N1CCN(CC(C)C)CCC1=O (configuration not stated)	inconclusive [activator, single point]	–
N/C(Cc1cccs1)=N\OC(=O)COc1ccc(Br)cc1Cl	inconclusive [activator, partial curve]	–
COc1ccc(N2C(=O)CSC2c2cccs2)cc1 (configuration not stated)	–	inactive: -2.62%
O=C1CC(Nc2ccc(N3CCOCC3)cc2)C(=O)N1Cc1ccccc1 (configuration not stated)	inconclusive [inhibitor, single point]	–
Nc1nc(Cl)nc2ccc(Br)cc12	–	inactive: 4.4%
Cc1cccc(C(=O)Nc2nnc(-c3cccnc3)o2)c1	inconclusive [inhibitor, single point]	–
